According to US20220340642A1 (Kyowa Kirin, published 2022):
Values belong to the binder of their own block, whether it stands above or below them.

Columns and labels:
[1] = target: T1, soluble recombinant of human FasL (His6, Pro134-Leu281) (UniProt P48023 134-281); assay: BIAcore SPR
T1 chain: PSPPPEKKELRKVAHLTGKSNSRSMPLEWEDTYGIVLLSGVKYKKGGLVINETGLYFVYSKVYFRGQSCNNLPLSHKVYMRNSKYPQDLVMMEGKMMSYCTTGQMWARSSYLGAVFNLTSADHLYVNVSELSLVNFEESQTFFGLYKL
Method in brief: (§1)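 Binding of each test molecule to soluble recombinant His-tagged human or cynomolgus monkey LIGHT, TL1A or FasL was analysed by surface plasmon resonance. Measurements used a BIAcore T-100 or T-200 instrument (GE Healthcare) in HBS-EP+ Buffer. The dissociation constant (Kd, nM) was derived from these measurements.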

[2] = target: T2, soluble recombinant of human LIGHT (His10, GS linker, Asp74-Val240); assay: BIAcore SPR
T2 chain: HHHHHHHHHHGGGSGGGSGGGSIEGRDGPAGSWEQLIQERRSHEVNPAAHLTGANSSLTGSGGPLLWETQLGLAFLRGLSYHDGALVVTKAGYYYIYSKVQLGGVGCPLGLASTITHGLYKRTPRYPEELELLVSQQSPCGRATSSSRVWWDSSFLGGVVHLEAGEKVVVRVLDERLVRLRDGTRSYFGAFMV
Method in brief: as §1

[3] = target: T3, soluble recombinant of human TL1A (His6, GS linker, Leu72-Leu251) (UniProt O95150 72-251); assay: BIAcore SPR
T3 chain: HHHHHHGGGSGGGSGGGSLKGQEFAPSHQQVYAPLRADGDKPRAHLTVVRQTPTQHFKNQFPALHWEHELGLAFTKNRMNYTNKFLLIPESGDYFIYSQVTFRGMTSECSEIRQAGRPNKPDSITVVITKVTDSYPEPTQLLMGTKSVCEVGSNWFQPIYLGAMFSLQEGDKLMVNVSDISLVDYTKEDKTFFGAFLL
Method in brief: as §1

[4] = target: T4, FLAG-cynoLIGHT (FLAG tag, cynomolgus monkey LIGHT Asp74-Val240) (cynomolgus monkey); assay: SPR, binder captured on Protein A chip
T4 construct: SEC trimer fraction; also called soluble cynomolgus monkey LIGHT trimer
T4 chain: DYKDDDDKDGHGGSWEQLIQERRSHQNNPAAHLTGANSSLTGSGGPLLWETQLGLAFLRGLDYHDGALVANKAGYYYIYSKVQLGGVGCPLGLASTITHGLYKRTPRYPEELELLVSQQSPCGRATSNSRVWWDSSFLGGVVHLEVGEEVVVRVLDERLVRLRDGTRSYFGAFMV
Method in brief: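 DcR3 variants were captured on a Protein A chip in HBS-EP+, with human or cynomolgus ligand trimers injected as analyte at 0.08–20 nmol/L and 30 μL/min. LIGHT, TL1A and cynomolgus trimers had 2 min association and 5 min dissociation; human FasL had 1 min and 3 min. Surfaces were regenerated with 3 mol/L MgCl2.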

Kd [1]: 0.83 nM
Kd [2]: 0.19 nM
Kd [3]: 0.12 nM
binding result [4]: binds
B1: chimera A-Fc (Eg1S LALAGA) (Fc fusion)
chain: ETFPPKYLHYDEETSHQLLCDKCPPGTYLKQHCTAKWKTVCAPCPPRHYTQFWNYLERCRYCNVLCGEREEEARACHATHNRACRCRTGFFAHAGFCLEHASCPPGAGVIAPGTPSQNTQCQPCPDGFFSNETSSKAPCRKHTNCSVFGLLLTQKGNATHDNICSGNSESTQK[omitted - human IgG1 Fc with C220S L234A L235A G237A (EU numbers)]

Kd [1]: 0.82 nM
Kd [2]: 0.2 nM
Kd [3]: 0.13 nM
binding result [4]: binds
B2: chimera A-Fc (Eg1S N434A) (Fc fusion)
chain: ETFPPKYLHYDEETSHQLLCDKCPPGTYLKQHCTAKWKTVCAPCPPRHYTQFWNYLERCRYCNVLCGEREEEARACHATHNRACRCRTGFFAHAGFCLEHASCPPGAGVIAPGTPSQNTQCQPCPDGFFSNETSSKAPCRKHTNCSVFGLLLTQKGNATHDNICSGNSESTQK[omitted - human IgG1 Fc with changes]
